Assay results taken from a compilation of properties of binary mixtures (doi:10.1007/s10953-016-0518-2).
The densities may have been worked out from excess volumes.

Test: xn = mol fraction of the nth substance listed
Details: 101 kPa

CC[n+]1ccn(C)c1.F[B-](F)(F)F + OCCO
mass density [kg/m3]
Details	x1 = 0.0993	x1 = 0.2001	x1 = 0.3023	x1 = 0.4011	x1 = 0.5003	x1 = 0.598	x1 = 0.7003	x1 = 0.7997	x1 = 0.8997	x1 = 1
303.15 K	1143.9	1171	1192.4	–	1223.3	1235.3	1246.6	1256.5	1265.7	1272.8
313.15 K	1136.4	1163.3	1184.5	–	1215.4	1227.5	1238.8	–	1258.1	1265.2
323.15 K	1128.9	1155.6	1176.7	1193.4	1207.6	1219.7	1231.2	–	1250.6	1257.7
333.15 K	–	–	1168.9	1185.6	1199.9	1212.1	1223.6	–	1243.1	1250.3
